From PubChem BioAssay AID1508624 (National Center for Advancing Translational Sciences (NCATS), 2021)
The whole screen tested about 48,000 compounds, of which about 120 (0.25%) were called active. Another 4% or so got no clear call; they are omitted. Calls come from the whole dose curve; as a rule, active = well fitted activation curve with a large enough effect; inconclusive = small, poorly fitted or top-dose-only effect, or another doubt; inactive = no such curve, though single readings can be large or run the other way. This is one part of the list.

Experiment: Primary qHTS for Identification of Small Molecule Activators of Huntingtin-Antisense Promoter Activity; note: nearly all actives have a fitted effect of over 55% in size
Conditions: HEK293 HTT-AS promoter firefly luciferase reporter, 24 h; series mostly up to 57.5 µM; activity change, positive = activation: at the top concentration
How it was run: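 HEK293 cells carrying firefly luciferase reporters were seeded at 2,500 per well in Opti-MEM and cultured for 24 h. They were then treated with compounds at up to 57.5 uM final for 24 h at 37 degrees C before Dual-Glo luminescence readout.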

Structure (SMILES) | activity change, positive = activation
Cc1nc(-c2ccccc2)sc1-c1ccc(SCC(=O)NCc2ccccc2Cl)nn1 | inactive: 13.2%
COc1ccc(OC)c(CNS(=O)(=O)c2ccc(-c3coc(C)n3)cc2)c1 | inactive: -26.4%
CC(=O)c1cc(-c2ccccc2)n(CC(=O)Nc2ccc(C)c(C)c2)c1C | inactive: -15.9%
CCOc1ccc(CNC(=O)CS(=O)(=O)c2cccc3nsnc23)cc1 | inactive: -22.7%
COc1ccccc1-c1nc(SCC(=O)NCc2ccccc2)c2c(=O)n(C)c(=O)n(C)c2n1 | inactive: -4.21%
Cc1cc2nc(-c3ccc(NC(=O)c4ccccc4F)cc3)oc2cc1C | inactive: 16.3%
COc1ccc(C)cc1NC(=O)CC1NCCNC1=O (configuration not stated) | inactive: -15.7% [at 11.5 µM, percent change from vehicle, -100% = no light]
Cc1cc(=O)n(Cc2ccccc2)c2c1c(C)nn2C | inactive: -27.9%
COCCNC(=O)c1ccc2nc(Cc3ccccc3)oc2c1 | inactive: 30.6%
CC(C)N(CCCNC(=O)Cn1ncc2c([nH]c3ccccc32)c1=O)Cc1ccccc1 | inactive: -9.55%
Cc1ccc(Nc2nnc(-c3ccc(C)c(S(=O)(=O)N4CCOCC4)c3)c3ccccc23)cc1 | inactive: -2.2%
Cc1cc(C)c2c(=O)cc(C(=O)Nc3sc4c(c3C(=O)NCC3CCCO3)CCCC4)oc2c1 (configuration not stated) | inactive: -4.07%
CCC(=O)C1=C(c2ccc(OC)c(OC)c2)N(C(=O)CC)n2c(nnc2-c2ccc(C)cc2)S1 | inactive: -0.27%
CC(=O)c1ccc(N2CCN(c3ccc4cc(S(=O)(=O)N5CCCCC5)ccc4n3)CC2)cc1 | inactive: -23.3%
CCOC(=O)c1ccc(NC(=O)CSc2nc3ccccc3c(=O)n2CCC(=O)NC2CCCCC2)cc1 | inactive: 1.95%
COc1ccc(-c2nc(CS(=O)(=O)CC(=O)NCCc3ccc(C)cc3)c(C)o2)cc1 | inactive: -18.8%
Cc1cc(-c2ccccc2)n2nc(-c3ccccc3)cc2n1 | inactive: 15.9%
Cc1c(C(=O)O)oc2c1-c1nn(Cc3ccc(Cl)cc3)cc1CC2 | inactive: -24%
CN(C)CCNC(=O)C(=O)NCC(c1ccc2c(c1)OCO2)N1CCOCC1 (configuration not stated) | inactive: 1.64%
Cc1ccc2cccc(NC(=O)C(C)Oc3ccc(Cl)cc3Cl)c2n1 (configuration not stated) | inactive: 6.87%
CCOc1ccc(C(c2c(O)cc(C)n(Cc3ccco3)c2=O)N2CCCCC2)cc1 (configuration not stated) | inactive: 2.69%
COc1ccccc1C(=O)Nc1c(C(=O)Nc2ccccc2F)oc2ccccc12 | inactive: -27.3%
Cc1ccc(NC(=O)CC2Sc3ccc(C(F)(F)F)cc3NC2=O)cc1 (configuration not stated) | inactive: 17.7%
COc1ccc(CNC(=O)Nc2cn(CC(C)C)c(=O)c3ccccc23)cc1 | inactive: -16.3%

Structure (SMILES) | activity change, positive = activation
CC(=O)c1ccc(NC(=O)CN(C)S(=O)(=O)c2cnc[nH]2)cc1 | inactive: -13.3%
Cc1cc(Cl)ccc1OCC(=O)N1CCC(c2nc3ccccc3s2)CC1 | inactive: -24.1%
O=C(Nc1cccc(-c2nc3ccccc3o2)c1)C(F)(F)F | inactive: -91%
C[C@]12CCC(=O)C=C1[C@@H]1CC1[C@H]1[C@H]3[C@@H]4C[C@H]4[C@@]4(CCC(=O)O4)[C@@]3(C)CC[C@H]12 (some centres not stated) | inactive: -13.3%
Cc1ncc(CO)c(C=O)c1O | inactive: -11.4%
Cc1ccc(OCCSc2nc(C)c(Cc3ccccc3)c(=O)[nH]2)cc1 | inactive: -14.2%
Cc1cc(C)c(NC(=O)CSc2nncn3c2cc2oc(C)cc23)c(C)c1 | inactive: -9.3%
CCN1C(=O)c2ccccc2C1Nc1ccc(OCCN2CCCCC2)cc1 (configuration not stated) | inactive: -2.75%
Cc1cccc(C(=O)Nc2ccc3nc(SCCOc4ccccc4)sc3c2)c1 | inactive: -13.8%
CN(C)c1ccc(N=NS(=O)(=O)O)cc1 | inactive: -81.2% [at 116 µM, percent change from vehicle, -100% = no light]
CCCCCOc1ccccc1/C(=C\SC)n1ccnc1 | inactive: -32.4%
COc1ccc(CCNc2nc(SCc3ccc(Cl)cc3)nc3ccccc23)cc1OC | inactive: -10.2%
Nc1ncc(S(=O)(=O)Nc2ccc(F)cc2F)cn1 | inactive: -6.23%
CCc1cnc2c(c1SCC(=O)NCc1ccc(F)cc1)c(=O)n(C)c(=O)n2C | inactive: -8.19%
COc1ccc(C2C=C(c3ccccc3)Nc3nc(NC(=O)/C=C/c4ccccc4Cl)nn32)cc1 (configuration not stated) | inactive: -13.3%
Nc1c(C(=O)Nc2cccc(F)c2)c2ccccn2c1C(=O)c1ccccc1 | inactive: 2.28%
COc1ccc(N2CCN(C(c3ccccc3F)c3sc4nc(-c5ccco5)nn4c3O)CC2)cc1 (configuration not stated) | inactive: -18.3%
CCOC(=O)c1c(NC(=O)COc2cccc(C)c2C)sc(C(C)=O)c1C | inactive: 16.6% [at 11.5 µM, percent change from vehicle, -100% = no light]
COc1ccc(Cl)cc1NC(=O)Cn1c(=O)c(-c2ccccc2NC(C)=O)nc2ccccc21 | inactive: -36%
COc1ccc(NC(=O)CN2C(=O)COc3ccc(S(=O)(=O)N4CCCCC4)cc32)cc1OC | inactive: 10.1%
CCCCC(=O)N1CCc2cc(OC)c(OC)cc2C1COc1ccc(OC)cc1 (configuration not stated) | inactive: -18.3%
Cc1cc(C)c2c(c1)c(C)cc1nnc(SCC(=O)c3ccc(F)cc3)n12 | inactive: -10.6%
COC(=O)c1ccccc1NC(=O)Cn1c(=O)cc(C)c2c(C)nn(C)c21 | inactive: -26%
